Out of some 310,000 compounds screened, about 2,200 (0.71%) showed an effect of 50% or more. Effects have a minus sign here. The list shows a part of the results.
molecular target: human ether-à-go-go-related gene (hERG) potassium channel (human, UniProt Q12809); test: primary screen, population patch clamp on CHO cells stably expressing hERG
Sequence (Q12809 whole entry, looked up): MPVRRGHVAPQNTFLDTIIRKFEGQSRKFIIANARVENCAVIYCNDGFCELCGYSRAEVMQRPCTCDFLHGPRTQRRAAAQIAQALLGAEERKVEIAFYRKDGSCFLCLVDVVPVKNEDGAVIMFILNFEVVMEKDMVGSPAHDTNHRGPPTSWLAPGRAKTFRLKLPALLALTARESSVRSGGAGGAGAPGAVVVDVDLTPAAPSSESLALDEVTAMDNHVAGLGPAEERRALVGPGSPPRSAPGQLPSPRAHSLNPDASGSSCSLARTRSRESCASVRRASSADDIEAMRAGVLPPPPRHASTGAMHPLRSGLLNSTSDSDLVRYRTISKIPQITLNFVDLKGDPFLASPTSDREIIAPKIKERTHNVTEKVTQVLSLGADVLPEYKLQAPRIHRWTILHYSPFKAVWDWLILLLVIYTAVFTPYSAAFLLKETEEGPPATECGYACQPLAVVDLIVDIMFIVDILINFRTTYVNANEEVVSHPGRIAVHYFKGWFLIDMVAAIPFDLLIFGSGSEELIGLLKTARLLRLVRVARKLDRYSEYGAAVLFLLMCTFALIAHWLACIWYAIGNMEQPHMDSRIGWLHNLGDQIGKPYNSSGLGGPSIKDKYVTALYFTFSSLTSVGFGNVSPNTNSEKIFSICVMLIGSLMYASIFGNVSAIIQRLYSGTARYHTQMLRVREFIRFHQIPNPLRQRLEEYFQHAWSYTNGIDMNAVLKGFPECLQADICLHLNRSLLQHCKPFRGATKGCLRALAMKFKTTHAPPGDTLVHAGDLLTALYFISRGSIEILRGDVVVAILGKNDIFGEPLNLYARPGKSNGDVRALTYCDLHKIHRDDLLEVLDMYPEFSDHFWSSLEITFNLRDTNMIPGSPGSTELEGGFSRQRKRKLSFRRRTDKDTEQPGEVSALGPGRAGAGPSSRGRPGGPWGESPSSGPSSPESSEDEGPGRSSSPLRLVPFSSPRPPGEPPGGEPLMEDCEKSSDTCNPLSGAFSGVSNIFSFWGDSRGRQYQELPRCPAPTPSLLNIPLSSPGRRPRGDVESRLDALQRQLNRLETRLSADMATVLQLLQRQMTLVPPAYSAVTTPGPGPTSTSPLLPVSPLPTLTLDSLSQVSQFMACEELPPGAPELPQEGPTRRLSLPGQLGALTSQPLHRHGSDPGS

Row | Structure (SMILES) | hERG current change (%, negative = inhibition) at 1uM
1 | O=C(/C(=C(\[O-])c1ccccc1)[n+]1ccc2ccccc2c1)c1ccccc1 | -2.07%
2 | O=C(O)c1cncc(SCc2ccccc2)n1 | 8.34%
3 | O=C(C1COc2ccccc2O1)N1CCc2ccccc21 (stereo not drawn) | 13.3%
4 | Cc1c(C(=O)NNC(=O)c2csc(N3CCOCC3)n2)oc2ccccc12 | -4.69%
5 | FC(F)(F)C1=NC(C(F)(F)F)=NP(N2CCOCC2)(N2CCOCC2)=N1 | 8.04%
6 | CCOc1ccc(CN(CCO)CCO)cc1[N+](=O)[O-].Cl | -44.1%
7 | Cc1cc(C)c(S(=O)(=O)NC2CC2)c(C)c1 | 10.2%
8 | c1ccc(C2NCCc3[nH]cnc32)cc1 (stereo not drawn) | 5.64%
9 | CN(C)C(CNC(=O)CSc1nnc(-c2ccco2)o1)c1ccccc1 (stereo not drawn) | 9.23%
10 | COc1ccc(NC(=O)c2ccc(-n3cccn3)nc2)cc1 | 11%
11 | COc1ccc(-c2cc3ccccc3nc2N)cc1OC | 10.4%
12 | Cc1ccc(OCC(=O)N2CCC(Cc3ccccc3)CC2)c([N+](=O)[O-])n1 | -32.1%
13 | Cc1cccc(N2CCN(C(=O)c3c(Cl)cnn3C)CC2)c1C | -7.51%
14 | COc1cccc(NC(=O)c2sc(Cl)nc2C)c1 | 25.1%
15 | CCN1CCN(Cc2ccc(NC(=O)c3cc(NC(=O)c4cnnc5ccccc45)cc(OC)c3)cc2C(F)(F)F)CC1 | 8.23%
16 | Cc1nc(-c2ccc([N+](=O)[O-])cc2)nc2[nH]ccc(=O)c12 | 14.5%
17 | CCCNS(=O)(=O)c1ccc(OCC(=O)N2CCc3ccccc3C2)c(C)c1 | -21%
18 | C/C=C/c1c(F)c(F)c(Oc2ccc(C(=O)O)cc2)c(F)c1F | 4.99%
19 | CNS(=O)(=O)c1cccc(C(=O)OCC(=O)Nc2ccc(Cl)cc2F)c1 | 10.5%
20 | CCn1c(=O)n(CC)c2cc(S(=O)(=O)N3CCc4ccccc43)ccc21 | 14%
21 | CC(NC(=O)C1CCC(CNS(=O)(=O)c2ccccc2)CC1)c1ccccc1 (stereo not drawn) | 14.8%
22 | CC(=O)N1CCOc2ccc(S(=O)(=O)NCCc3cccc(C)c3)cc21 | 3.36%

Row | Structure (SMILES) | hERG current change (%, negative = inhibition) at 1uM
23 | N=c1c(C(=O)NCc2ccc3c(c2)OCO3)cc2c(=O)n3ccccc3nc2n1CC1CCCO1 (stereo not drawn) | -84.2%
24 | CCn1c(SCC(=O)Nc2ccc(C(=O)OC)cc2)nc2cccnc21 | -0.675%
25 | COc1ccc(OC)c(Nc2nc(NCc3ccco3)nc(N)c2[N+](=O)[O-])c1 | 3.91%
26 | COc1ccc2cc3c(N)nn(C(=O)c4cccc([N+](=O)[O-])c4)c3nc2c1 | 5.91%
27 | C=CCSc1nnc(N2C(=O)C(O)=C(C(=O)c3ccco3)C2c2ccccc2F)s1 (stereo not drawn) | 14.7%
28 | F[B-](F)(F)F.O=[N+]([O-])c1ccc2nc(-[n+]3c(-c4ccccc4)cc(-c4ccccc4)cc3-c3ccccc3)[nH]c2c1 | 3.72%
29 | COc1ccc(OCC(=O)N2N=C(C(F)F)CC2(O)C(F)F)cc1 (stereo not drawn) | 10.3%
30 | COc1ccc(C(=S)N2CCOCC2)cc1OC(=O)c1cccc([N+](=O)[O-])c1 | -0.0836%
31 | Cc1ccc(-c2nnn(CC(=O)NCCc3ccc4c(c3)OCO4)n2)cc1 | 14.9%
32 | CCC(C(=O)NC1CCCCC1)n1nc(C)c2c(C)n(-c3ccccc3)nc2c1=O (stereo not drawn) | 15.2%
33 | COc1ccc(C(=O)NC(=S)NCc2ccco2)cc1 | 15%
34 | COc1cc(/C=C2\SC(N)=NC2=O)ccc1OCC(=O)Nc1ccccc1C | 9.43%
35 | COc1ccc(C2=NN(C(=S)Nc3ccccc3)C(c3ccccc3)C2)cc1 (stereo not drawn) | 5.13%
36 | CCOC(=O)CC1(NC(=O)C2CCC(=O)N(CCc3ccccc3)C2)CCCCC1 (stereo not drawn) | 29.2%
37 | Cc1cc(N2CCN(C(=O)c3ccco3)CC2)c2ccccc2n1 | -68.6%
38 | COc1cc(C(=O)Nc2nnc(C(C)(C)C)s2)c([N+](=O)[O-])cc1OC | 14.2%
39 | O=c1sc2ccccc2c(=O)n1Cc1ccccc1F | 13.3%
40 | C/C(=N/NC(=O)CN1CCN(Cc2ccccc2)CC1)c1ccc([N+](=O)[O-])cc1 | -72.9%
41 | CN(Cc1ccccc1)C(=O)C1CCCN(c2ncnc3c2nc2n3CCCCC2)C1 (stereo not drawn) | -10.7%
42 | Cc1nn(CC(=O)N2CCc3ccccc3C2)c(C)c1[N+](=O)[O-] | 20.2%
43 | O=c1oc2ccc([N+](=O)[O-])cc2c(N2CCOCC2)c1[N+](=O)[O-] | 16.5%
44 | CC(C)OCCCNC(=O)c1ccccc1Oc1ccccc1 | -7.09%

Row | Structure (SMILES) | hERG current change (%, negative = inhibition) at 1uM
45 | Cc1ccc(OCc2cc(C(=O)N3CCN(c4ccccc4)CC3)no2)cc1C | 9.56%
46 | CCC(C)n1c(O)c(C=NCCN2CCOCC2)c(=O)[nH]c1=S (stereo not drawn) | 11.7%
47 | Cc1ccc(C)c(C(=O)CCC(=O)Nc2ccc(F)cc2)c1 | 17.2%
48 | O=C(O)CNC(=O)/C(=C\c1cccc([N+](=O)[O-])c1)NC(=O)c1ccco1 | 14.8%
49 | CC1CCCC(C)N1CCCNC(=O)c1cc2c(s1)-c1ccccc1OC2 (stereo not drawn) | -25.2%
50 | CC1CCCC(NC(=O)C2CCC(CNc3c(N4CCCC4)c(=O)c3=O)CC2)C1C (stereo not drawn) | 9.03%
51 | O=C(CSc1nnnn1-c1ccc(Cl)c(C(=O)O)c1)NC(c1ccccc1)c1ccccc1 | 11.3%
52 | Cc1ccc(/C=N/NC(=O)c2nnn(-c3nonc3N)c2CSc2ccccc2)s1 | 11.4%
53 | CC(=O)N/C(=C\c1ccccc1)C(=O)OC(C)C(=O)N(C)c1ccccc1 (stereo not drawn) | 5.31%
54 | COC(=O)C1=C(C)N(c2ccccc2)/C(=C/c2ccco2)C1=O | 31.1%
55 | Cc1ccccc1NC(=O)c1cc(-c2ccccc2)n(CCCN2CCOCC2)c1C | -3.58%
56 | COc1cc(/C=N/N(C)c2ccccc2)ccc1O | 13.6%
57 | Cc1ccc(OCCn2cc(/C(N)=N/O)c3ccccc32)cc1C | 2.47%
58 | CCOc1cccc2cc(C(=O)Nc3nccs3)c(=O)oc12 | -6.38%
59 | Nc1nc(-c2cccs2)c(-c2cccs2)s1 | 11.2%
60 | COc1ccc(C(C)=O)cc1Cn1c(=O)cc(C)[nH]c1=O | 16.1%
61 | COc1ccccc1N1C(=NC(=O)C(C)Oc2ccccc2)SC2CS(=O)(=O)CC21 (stereo not drawn) | 6.42%
62 | CCOc1cc(C(=O)Nc2ncn[nH]2)cc(OCC)c1OCC | 0.901%
63 | Cc1ccc(NC2=NC3(CCCC3)N=C(N)N2)c(C)c1 | 17.8%
64 | CCOc1ccccc1NC(=S)N1CCN(c2ccc(O)cc2)CC1 | 10.3%
65 | CCCOc1ccc(-c2nn(-c3ccccc3)cc2/C=C2\SC(=S)N(C3CCS(=O)(=O)C3)C2=O)cc1 (stereo not drawn) | 13.3%
66 | N#CCCN(C(=O)COc1ccc(Br)cc1F)c1ccc(F)cc1 | -20.1%

Row | Structure (SMILES) | hERG current change (%, negative = inhibition) at 1uM
67 | O=C1NC(=O)C(=C/C=C/c2coc3ccc(Br)cc3c2=O)C(=O)N1 | 6.81%
68 | COCCNC(=O)Cn1nc(C)c([N+](=O)[O-])c1C | 1.12%
69 | COc1cc(OC)cc(C(=O)NNC(=S)NC2CC2)c1 | 16.4%
70 | OCC1CO1 (stereo not drawn) | 12.7%
71 | COc1cc(OC)cc(C(=O)N[C@H](C(=O)NCc2cccs2)C(C)C)c1 | 3.82%
72 | OCCN(CCO)CC(O)COc1ccc(Br)cc1 (stereo not drawn) | 5.84%
73 | COc1ccc(-c2nc(SCc3ccc(C#N)cc3)[nH]c(=O)c2C#N)cc1 | 15.1%
74 | COc1ccc(NC(=O)c2cc(-c3ccc(C)c(C)c3O)n[nH]2)cc1Cl | 22.1%
75 | CC(C)CCN(CC(=O)NCc1ccc(F)cc1)S(=O)(=O)c1ccccc1F | 3.06%
76 | O=C(CCC(=O)c1cccs1)OCC(=O)N1CCN(S(=O)(=O)c2ccccc2)CC1 | 3.61%
77 | CCn1c(=O)cc(SCC(=O)Nc2cc(OC)c(OC)c(OC)c2)c2ccccc21 | 1.27%
78 | O=C(NCCc1c[nH]c2ccccc12)C1CCN(c2nnc(N3CCCC3=O)s2)CC1 | 13%
79 | CC(=O)Nc1ccc(S(=O)(=O)NCc2csc(C)n2)cc1 | 6.48%
80 | Cc1[nH]n(C(N)=S)c(=O)c1N=Nc1cccc(Cl)c1 | 11.7%
81 | CCn1c(C)nc2cc(C#N)ccc21 | 15.4%
82 | CCOc1ccc(N2C(=O)CC(NCCc3ccc(S(N)(=O)=O)cc3)C2=O)cc1 (stereo not drawn) | 11.9%
83 | O=C(Cc1cccs1)Nc1nc2ccccc2s1 | 8.59%
84 | O=C(O)c1ccc(N(c2ccccc2)c2ccccc2)cc1 | 6.53%
85 | COc1ccc(C2Nc3ccccc3NC3=C2C(=O)CC(C)(C)C3)cc1OC (stereo not drawn) | 10.3%
86 | NC(=O)C1(c2ccccc2)CCC(=O)N1c1ccccc1 (stereo not drawn) | 14.8%
87 | O=C(COC(=O)c1cccnc1Nc1cccc(C(F)(F)F)c1)NC1CCS(=O)(=O)C1 (stereo not drawn) | 9.44%

Source: publication PMC4336329 (PLoS ONE, 2015)
